Measured values from PubChem BioAssay AID1508624 (National Center for Advancing Translational Sciences (NCATS), 2021).
About 120 (0.25%) of roughly 48,000 compounds were called active. Roughly 4% stayed inconclusive and do not appear here. Calls follow the shape of the dose curve; as a rule, active = well fitted activation curve with a large enough effect; inconclusive = small, poorly fitted or top-dose-only effect, or another doubt; inactive = no such curve, though single readings can be large or run the other way. Some of the results follow.

experiment: Primary qHTS for Identification of Small Molecule Activators of Huntingtin-Antisense Promoter Activity; details: HEK293 HTT-AS promoter firefly luciferase reporter (activity 0% = vehicle and -100% = no light), 24 h; series mostly up to 57.5 µM; activity change, positive = activation: at the top concentration; also: nearly all actives have a fitted effect of over 55% in size
Summary of the method: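 Firefly luciferase readout (Dual-Glo, 10 min RT) after 24 h, 37 °C compound exposure (final up to 57.5 uM) of HEK293 reporter cells cultured 24 h beforehand; PTC124 at 50 uM final as control inhibitor; activity scaled vehicle 0%, zero RLU -100%.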

| Compound | activity change, positive = activation |
| --- | --- |
| O=C(NCCC1=CCCCC1)c1ccc2c(c1)N(Cc1ccc(Cl)cc1)C(=O)c1ccccc1S2=O (configuration not stated) | inactive: -29.8% |
| N#Cc1c(N(CC(=O)O)CC(=O)O)sc(C(=O)O)c1CC(=O)O | inactive: -13.9% |
| COc1ccc(-n2c(=O)c3c(c4cc(OC)ccc4n3C)n(C)c2=O)cc1 | inactive: -12.8% |
| CCOC(=O)c1cccc(NC(=O)c2cnc(N3CCCCC3)c3ccccc23)c1 | inactive: -38.4% |
| CCOc1ccc(NC(=O)Cn2cc(C(=O)c3ccc(CC)cc3)c(=O)c3ccc(C)nc32)cc1 | inactive: -13.6% |
| Cc1ccc(-n2c(=O)c3cccnc3n2CC(=O)NCc2ccc(F)cc2)cc1C | inactive: -28.5% |
| Cc1ccc(CNC(=O)CN2CCCN(Cc3ccc(F)cc3)S2(=O)=O)cc1 | inactive: -8.73% |
| CCOC(=O)C1=C(C)NC(=S)NC1c1cccc(O)c1 (configuration not stated) | inactive: -29.2% |
| CCN(CC)S(=O)(=O)c1ccc2c(c1)N(CC(=O)Nc1c(C)cc(C)cc1C)C(=O)C1CCCN21 (configuration not stated) | inactive: -9.69% |
| COc1ccc(NC(=O)CSc2nccn2Cc2ccco2)cc1OC | inactive: 30.6% |
| O=C(COc1ccccc1F)Nc1ccc(Cl)c(-c2nc3ccccc3[nH]2)c1 | inactive: -11.7% |
| Cc1cc(C)c(/C=C/c2onc(C)c2S(=O)(=O)N2CCC(C(=O)Nc3ccc(Cl)c(C(F)(F)F)c3)CC2)c(C)c1 | inactive: 3.53% |
| CCOC(=O)c1cc(NC(=O)c2ccc(OC)cc2)c(=O)n2c1oc1ccc(Cl)cc12 | inactive: 1.3% |
| CCn1c(CNC(=O)C23CC4CC(CC(C4)C2)C3)nnc1SCC(=O)Nc1ccc(F)cc1 | inactive: -30.2% |
| CC1Cc2ccccc2N1C(=O)CSc1nnc(-c2cccc(Cl)c2)o1 (configuration not stated) | inactive: -4.98% |
| O=c1[nH]c2ccc(NCc3ccccc3F)cc2[nH]1 | inactive: 27.8% |
| O=C(CCc1ccccc1)NCc1ccc2c(c1)CCN2C(=O)c1ccc(Cl)cc1 | inactive: 0.717% |
| CCOc1ccc(CCNC(=O)c2cc3c(=O)n(C)c4ccccc4c3n2C)cc1 | inactive: -20.2% |
| CCc1cccc(NC(=O)CC2Oc3ccc(C)cc3NC2=O)c1 (configuration not stated) | inactive: -16.4% |
| Cc1ccc(NC(=O)CC2Sc3ccccc3NC2=O)c(Br)c1 (configuration not stated) | inactive: -38% |
| O=C(NCCS(=O)(=O)N1CCN(c2cccc(Cl)c2)CC1)c1cc(=O)c2ccccc2o1 | inactive: -8.51% |
| CCC(=O)N1CCc2cc(S(=O)(=O)NCCC(=O)Nc3ccc(OC)c(OC)c3)ccc21 | inactive: 5.32% |
| COc1ccc(NC(=O)CSc2nnc3c(C)cc4ccccc4n23)cc1 | inactive: 1.05% |
| COc1cc(-c2nnn(CC(=O)NCc3ccccc3)n2)cc(OC)c1OC | inactive: -17.2% |
| Cc1cnc2c(c1SCC(=O)NCc1ccc(F)cc1)c(=O)n(C)c(=O)n2C | inactive: -9.01% |
| Cc1cccc(N2CCN(c3ncnc4c3c(-c3ccccc3)cn4-c3ccccc3)CC2C)c1 (configuration not stated) | inactive: -18% |
| CCOC(=O)c1cnc2ccccc2c1Nc1ccc(N2CCOCC2)cc1 | inactive: 13.6% |
